Results taken from PubChem BioAssay AID686971 (National Center for Advancing Translational Sciences (NCATS), 2013).
Screen size: about 360,000 compounds; about 7,500 (2.1%) were called active. The inconclusive results got no clear call from the source; some entries with a clear call stand among them for comparison. Calls follow the shape of the dose curve; as a rule, active = well fitted cell-killing curve with a large enough effect; inconclusive = small, poorly fitted or top-dose-only effect, or effect the other way, or another doubt; inactive = no such curve, though single readings can be large or run the other way. Potencies of inconclusive entries are left out as doubtful fits.

assay: qHTS for induction of synthetic lethality in tumor cells producing 2HG: qHTS for the HT-1080-IDH1KD cell line; conditions: HT-1080 IDH1 knockdown viability, ATP luminescence, 48 h; activity, negative = toxicity: at 46.1 µM (top of the series) unless noted;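 as to activity, negative = toxicity: 0% = DMSO wells and -100% = cell-free medium wells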
Procedure, shortened: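 CellTiter-Glo luminescence after 48 h compound exposure at 37 degrees C of IDH1-knockdown HT-1080 cells in 5% FBS RPMI. %Activity scaled between DMSO wells and cell-free media wells, with curves fitted and assigned curve classes.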
Potency is read from the fitted curve at half-maximal effect; tags tell the direction and shape of the fitted curve.

Structure (SMILES)	activity, negative = toxicity	Potency
O=[N+]([O-])c1ccc(COc2ccc(CN3CCCCC3)cc2)cc1	inactive: -2.78%	
O=C(CN1C(=O)NC2(CCCC2)C1=O)Nc1ccc(F)c(Cl)c1	inactive: -1.62%	
Cc1cc(C)c2cc(C#N)c(N3CCNCC3)nc2c1	inactive: 1.86%	
COc1ccccc1NC(=S)NCCc1ccc(Cl)cc1		inconclusive [cytotoxic, single point]
COc1ccc2c(-c3ccc(OCCN4CCCCC4)cc3)c(-c3ccccc3OC)sc2c1		inconclusive [cytotoxic, single point]
O=C(/C=C/c1ccco1)Nc1ccc(Oc2ccc(Cl)cc2)cc1		active: 4.11 µM
O=C1C2C3C=CC(C4CC34)C2C(=O)N1/N=C/c1ccc([N+](=O)[O-])o1 (stereo not drawn)		active: 2.59 µM
O=C(Cn1cnc2ccccc21)NC(c1ccccc1)c1ccccc1		inconclusive [cytotoxic, single point]
O=C1CSC(=S)N1/N=C/c1ccc(O)c([N+](=O)[O-])c1		inconclusive [cytotoxic, partial curve]
COCCNC(=O)CSc1cc(-c2ccccc2)c2ccc(OC)cc2n1		inconclusive [cytotoxic, single point]
Cn1c(=O)c(C(=O)NNC(=O)c2ccc(Br)cc2)c(O)c2ccccc21		active: 14.6 µM
CCOC(=O)C1=C[C@@H](C(C)(C)C)N(S(=O)(=O)c2ccc(C)cc2)[C@H]1c1cccc(Cl)c1		active: 18.4 µM
COCC1CCCC1OS(N)(=O)=O (stereo not drawn)	inactive: 13.6%	
CC1(C(=O)NS(=O)(=O)C2CC2)CCN(C(=O)c2cccc(Cl)c2)C1 (stereo not drawn)		inconclusive [rising, partial curve, poor fit]
CCCCC[C@@H](C)N1C[C@H](COCc2ccccc2)Oc2cc(N3CC[C@H](N(C)C)C3)ccc2S1(=O)=O		active: 14.6 µM
CC(=O)NC(c1ccc(Cl)cc1)c1ccc2cccnc2c1O (stereo not drawn)		inconclusive [cytotoxic, full curve]
NS(=O)(=O)c1cccc(NC(=O)COC(=O)Cn2cnc3ccccc32)c1	inconclusive: 30.5%	
CCOC(=O)c1sc(N=NC2=C(O)CCCC2=O)c(C(=O)OCC)c1C		inconclusive [cytotoxic, single point]
CCN(CC)C(=O)C1=C(C)N(Cc2ccc(F)cc2)C(=O)C(CC(=O)NCCCN(C)C)C1 (stereo not drawn)	inactive: 1.72%	
COc1ccc(CNC(=O)COc2ccc(S(=O)(=O)N3CCCCC3)cc2Cl)cc1		inconclusive [cytotoxic, partial curve]
CN(c1ccccc1)S(=O)(=O)c1ccc(Cl)c(C(=O)Nc2nc3ccccc3[nH]2)c1		inconclusive [cytotoxic, single point]
Cc1nc(C(Cl)(Cl)Cl)nc2[nH]ccc(=O)c12		inconclusive [cytotoxic, single point]
COc1cc(/C=N/NC(=O)c2ccccn2)ccc1OC(=O)c1ccccc1Br		inconclusive [cytotoxic, partial curve]

Structure (SMILES)	activity, negative = toxicity	Potency
Cc1cc(OCC(=O)Nc2ccc(S(=O)(=O)N3CCN(C)CC3)cc2)cc(C)c1Cl		inconclusive [cytotoxic, single point]
COc1ccccc1Cc1c(-c2ccc(C#N)cc2)nc2ccc(C)cn12		inconclusive [cytotoxic, single point]
O=C(NC1CCCCC1)C1CC(=O)N(CCc2ccc(F)cc2)C1 (stereo not drawn)	inactive: 18.8%	
COc1cccc(C(=O)Nc2ccc(NC(=O)c3ccco3)nc2)c1	inactive: 24.1%	
Cn1nnnc1SCC(=O)c1cccs1		inconclusive [cytotoxic, partial curve]
COc1cc(SC)ccc1C(=O)NCc1ccc(C)cc1		inconclusive [cytotoxic, single point]
COc1ccc(-n2ncc3c2CC(C)(C)CC3NC(=O)c2ccc(OC)o2)cc1 (stereo not drawn)	inactive: 4.1%	
O=C1CC(c2cccc([N+](=O)[O-])c2)c2ccc3ccccc3c2N1 (stereo not drawn)		inconclusive [cytotoxic, single point]
C=Cc1ccc(Cn2c(C)c(C(=O)NCc3ccc4c(c3)OCO4)sc2=O)cc1	inactive: -17.2%	
c1ccc(-c2ccc(-c3cnc4n3CCCCC4)cc2)cc1		inconclusive [cytotoxic, partial curve]
COc1ccc(NC(=O)C(c2ccc(C#N)cc2)n2c(=O)c(-c3cc4ccccc4[nH]3)nc3ccccc32)cc1 (stereo not drawn)		inconclusive [cytotoxic, partial curve]
Cc1csc(NC(=O)CSc2nnc3c4ccccc4nc(C(C)(C)C)n23)n1		active: 6.31 µM
O=C(CSc1nncn1-c1ccccc1)Nc1cc(F)ccc1F	inconclusive: -33.4% [cytotoxic]	
Cc1ccc(CSCc2nc3ccccc3[nH]2)cc1		inconclusive [cytotoxic, single point]
CCCCCCn1c(COc2ccccc2F)nnc1SCC(=O)N1c2ccccc2NC(=O)C1(C)C		inconclusive [cytotoxic, single point]
Fc1ccc(Nc2ccnc(Nc3ccc(F)cc3)n2)cc1		inconclusive [cytotoxic, single point]
COc1ccc(-c2ccc(CN3C(CC(C)C)C(=O)N(Cc4cn(CC5CCCCC5)nn4)CCS3(=O)=O)cc2)cc1OC (stereo not drawn)		inconclusive [cytotoxic, single point]
COc1cccc(/C=C/C(=O)c2cccc([N+](=O)[O-])c2)c1OC		inconclusive [cytotoxic, single point]
O=C(O)CC1(CC(=O)NCc2cc(F)cc3c2OCOC3)CCCCC1	inactive: 21.2%	
CCc1nn(C(C)C(=O)NCCN2CCN(c3cccc(C)c3C)CC2)c(=O)c2cc3occc3n12 (stereo not drawn)		inconclusive [cytotoxic, partial curve]
O=C(Nc1cccnc1)c1ccccc1-c1nc(-c2ccccc2F)no1	inconclusive: -30.2% [cytotoxic]	
CC(=O)N1c2ccc(S(=O)(=O)NCCc3ccccc3)cc2CC1C (stereo not drawn)		inconclusive [cytotoxic, single point]
COc1cc(C(=O)N2CCc3ccccc32)ccc1OCc1c(C)noc1C	inactive: -10.9%	

Structure (SMILES)	activity, negative = toxicity	Potency
O=C(CC12CC3CC(CC(C3)C1)C2)NC(=S)Nc1ccc(CN2CCOCC2)cc1		inconclusive [cytotoxic, partial curve]
CCCCCN(C(=O)CCC(=O)OCc1ccc(C(C)(C)C)cc1)c1c(N)n(CCCC)c(=O)[nH]c1=O		inconclusive [cytotoxic, single point]
CCCC(=O)c1ccc(N2CCN(S(=O)(=O)c3ccc(C)cc3)CC2)c(F)c1	inactive: 9.15%	
CCc1nnc(NC(=O)c2nc(S(=O)(=O)Cc3cccc(C)c3)ncc2Cl)s1		active: 10.3 µM
Cc1cc(C)nc(N/N=C/c2ccccc2OCc2cccc(Br)c2)n1		inconclusive [cytotoxic, single point]
Cc1cc(F)ccc1C(O)c1ncc(-c2ccccc2Cl)[nH]1 (stereo not drawn)		inconclusive [cytotoxic, single point]
Cc1ccc(NC(=O)Nc2ccc(Cl)cc2)c(Br)c1		inconclusive [cytotoxic, single point]
CCN=c1scc(-c2ccc(F)cc2)n1/N=C/c1ccccn1		inconclusive [cytotoxic, partial curve]
Cc1ccc(C(=C2C3C=CC2C2C(=O)NC(=O)C32)c2ccc(C)cc2)cc1 (stereo not drawn)		inconclusive [cytotoxic, single point]
CC1(c2ccccc2)C(C#N)C(=O)NC(=O)C1C#N (stereo not drawn)	inactive: 19.7%	
CCOc1ccccc1Oc1cn[nH]c1-c1ccc(OC)cc1O		inconclusive [cytotoxic, single point]
OC(CNCC1(N2CCCCC2)CCCCC1)COc1ccc(Cl)cc1Cl (stereo not drawn)		active: 18.4 µM
O=C(Cc1cccc(NC(=O)C2CCCN(C(=O)C3CC3)C2)c1)Nc1ccc(C(=O)N2CCOCC2)cc1 (stereo not drawn)	inactive: 5.28%	
CC1=C/C(=N\OS(=O)(=O)c2ccccc2)C(C)=CC1=O		active: 9.2 µM
CC(C)C[C@@H](CN1CCCC1CN1C(=S)NC[C@@H]1Cc1ccc(O)cc1)N1C[C@H](Cc2ccc(O)cc2)N(CC2CCCCC2)C1=S (stereo partly drawn)		inconclusive [cytotoxic, single point]
CCCCCC(=O)N1CC2(CC(c3cccc(NC(=O)CC(c4ccccc4)c4ccccc4)c3)=NO2)C[C@@H]1C(N)=O (stereo partly drawn)		inconclusive [cytotoxic, single point]
O=C(NN=Cc1ccc(O)cc1O)c1ccccc1NS(=O)(=O)c1cccs1		inconclusive [cytotoxic, single point]
COc1ccc(NC(=O)CSc2c3c(nc4cc(Cl)ccc24)CCCC3)cc1OC		inconclusive [cytotoxic, single point]
Cn1c(=O)oc2cc(S(=O)(=O)N3CCC(C(=O)NCc4ccccc4Cl)CC3)ccc21	inactive: 2.88%	
O=C(Nc1cc(Sc2ccccn2)cc([N+](=O)[O-])c1)c1ccc([N+](=O)[O-])cc1		inconclusive [cytotoxic, single point]
COC(=O)Nc1ccc(S(=O)(=O)N2CCCc3cccc(O)c32)cc1		inconclusive [cytotoxic, single point]
COc1ccc(N=C(N)SCc2ccccn2)cc1		inconclusive [cytotoxic, single point]
